By IC50 is meant the dose at which the fit gives 50% viability; a limit (>, <) means that the fit lies beyond the doses tested. AUC, from the same fit, is the share of area under the viability curve across the 256-fold dose range; values near 1 show little effect. The top dose, if marked as inferred, is not printed in the source and was worked back from the curve model. Bounds are passed on as bounds.

Compound in this assay: O=C1NC(=O)/C(=C\c2ccc3nccnc3c2)S1 [AS605240]
Nature of the assay: Viability of human cancer cell lines after 72 h of drug (GDSC screen). The conditions noted are these: top dose inferred. Here is the method: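 Human cancer cell lines in 384-well plates, medium with 10% serum, drug for 72 h over a 256-fold dose range (nine 2-fold or five 4-fold steps up to the top dose). Adherent lines were fixed and stained with the nucleic acid dye Syto60, suspension lines read with resazurin; signal relative to control wells, capped at 0 and 100%. One two-parameter sigmoid per drug and line, fitted in a mixed model over all curves with the slope shared within a line.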
As for “H-EMC-SS (chondrosarcoma, adherent, top dose 20 µM)”, the AUC stood at 0.859 and the IC50 was over 20 µM.

Consider “HA7-RCC (kidney, adherent, top dose 20 µM)”, for which the AUC is 0.909 and the IC50 was over 20 µM.

Consider “HAL-01 (lymphoblastic leukaemia, suspension, top dose 20 µM)”, for which the AUC was 0.451 and the IC50 came out at 0.937 µM.

Turning to “HARA (lung squamous cell carcinoma, adherent, top dose 20 µM)”, the AUC came out at 0.756 and the IC50 stood at 7.86 µM.

As to “HC-1 (hairy cell leukaemia, suspension, top dose 20 µM)”, the AUC was 0.772 and the IC50 is 7.43 µM.

In the case of “HCC38 (breast, adherent, top dose 20 µM)”, the AUC came out at 0.925 and the IC50 is over 20 µM.

On to “HCC70 (breast, adherent, top dose 20 µM)”, for which the AUC was 0.858 and the IC50 turned out to be 15.9 µM.

With “HCC202 (breast, adherent, top dose 20 µM)”, the AUC amounted to 0.656 and the IC50 amounted to 4.05 µM.

“HCC1143 (breast, adherent, top dose 20 µM)”: the AUC was determined as 0.79 and the IC50 was 13.1 µM.

As for “HCC1187 (breast, suspension, top dose 20 µM)”, the AUC came to 0.831 and the IC50 was determined as 11.8 µM.

As to “HCC1395 (breast, adherent, top dose 20 µM)”, the AUC worked out at 0.983 and the IC50 was over 20 µM.

On to “HCC1419 (breast, adherent, top dose 20 µM)”, for which the AUC turned out to be 0.883 and the IC50 was over 20 µM.

On to “HCC1428 (breast, adherent, top dose 20 µM)”, for which the AUC is 0.95 and the IC50 is over 20 µM.

“HCC1500 (breast, adherent, top dose 10.24 µM)”: the AUC is 0.939 and the IC50 is over 10.2 µM.

For “HCC1569 (breast, adherent, top dose 20 µM)”, the AUC stood at 0.876 and the IC50 was over 20 µM.

For the cell line “HCC1599 (breast, suspension, top dose 20 µM)”, the AUC came out at 0.705 and the IC50 came to 5.2 µM.

For the cell line “HCC1806 (breast, adherent, top dose 20 µM)”, the AUC came out at 0.934 and the IC50 is over 20 µM.

Regarding “HCC1937 (breast, adherent, top dose 20 µM)”, the AUC was 0.894 and the IC50 was over 20 µM.

For “HCC1954 (breast, adherent, top dose 20 µM)”, the AUC is 0.643 and the IC50 is 3.33 µM.

Take “HCC2157 (breast, suspension, top dose 20 µM)”: the AUC worked out at 0.969 and the IC50 is over 20 µM.

With “HCC2218 (breast, suspension, top dose 20 µM)”, the AUC came to 0.793 and the IC50 was 11.8 µM.

On to “HCC2998 (large intestine, adherent, top dose 20 µM)”, for which the AUC stood at 0.987 and the IC50 was over 20 µM.

Regarding “HCC-15 (lung squamous cell carcinoma, adherent, top dose 20 µM)”, the AUC is 0.806 and the IC50 was determined as 13.7 µM.

“HCC-33 (small cell lung carcinoma, adherent, top dose 20 µM)”: the AUC was determined as 0.93 and the concentration for half-maximal inhibition (IC50) is over 20 µM.

Regarding “HCC-44 (lung adenocarcinoma, adherent, top dose 20 µM)”, the AUC came out at 0.845 and the IC50 is 14 µM.

On to “HCC-56 (large intestine, adherent, top dose 20 µM)”, for which the AUC amounted to 0.572 and the IC50 is 1.98 µM.

Turning to “HCC-78 (lung adenocarcinoma, adherent, top dose 20 µM)”, the AUC stood at 0.902 and the IC50 was over 20 µM.

As to “HCC-827 (lung adenocarcinoma, adherent, top dose 20 µM)”, the AUC turned out to be 0.925 and the IC50 is over 20 µM.

Usually IC50 stands for the midpoint of a concentration-inhibition curve.

Source of the values: the supplement of paper PMC4967469.
